In PubChem BioAssay AID485344 (National Center for Advancing Translational Sciences (NCATS), 2010):
About 6,900 (2%) of roughly 340,000 compounds were called active. Cut-off read from the data, not from the text of the source: active = inhibition above about 30%; inactive = below that, where a call was filed. Only a part is listed here, and it is no random draw. Entries without a call were filed so in the source.
Note: 0% is about no effect.

The compounds below were run against D(2) dopamine receptor (Homo sapiens) (UniProt P14416) (assay: HTS Assay for Allosteric Antagonists of the Human D2 Dopamine Receptor: Primary Screen for Antagonists). Conditions: HEK293 TREx D2 cells, calcium flux, dopamine EC80; at 10 µM; stronger effect = higher value.
Sequence of UniProt P14416 (P14416 whole entry, looked up): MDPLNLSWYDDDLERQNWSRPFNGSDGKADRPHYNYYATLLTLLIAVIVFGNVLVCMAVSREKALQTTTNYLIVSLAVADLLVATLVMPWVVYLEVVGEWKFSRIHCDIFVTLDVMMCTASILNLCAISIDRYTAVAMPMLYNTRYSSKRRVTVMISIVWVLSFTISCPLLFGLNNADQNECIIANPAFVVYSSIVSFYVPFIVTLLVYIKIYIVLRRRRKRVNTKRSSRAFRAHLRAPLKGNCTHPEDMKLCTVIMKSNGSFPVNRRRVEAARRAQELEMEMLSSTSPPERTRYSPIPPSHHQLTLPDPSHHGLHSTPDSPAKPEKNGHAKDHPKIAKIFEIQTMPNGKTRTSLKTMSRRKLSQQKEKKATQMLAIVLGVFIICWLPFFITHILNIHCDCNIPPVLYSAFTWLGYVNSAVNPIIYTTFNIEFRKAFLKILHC
Summary of the method: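 Cells plated overnight at 30 C with tetracycline; no-wash calcium dye, 30–90 min RT; 10 s baseline; compound pinned; 180 s read; EC80 dopamine added; another 180 s read.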
In the case of `COc1ccc(-n2c(=O)c3c(C)c(C)sc3n(CC(=O)NCc3ccc(C)cc3)c2=O)c(OC)c1`, the inhibition is reported as 17.4%.
For `O=C(NCc1ccc(F)cc1)C1CCCN(c2ncnc3onc(-c4ccc(F)cc4)c23)C1` (stereo not drawn), the inhibition was -4.11%.
For `CCOc1ccccc1CNC(=O)c1ccc(-c2nc(CSc3ccc(C)cc3)c(C)o2)cc1`, the inhibition was 5.5%.
`Cn1c(=O)c(=O)n(C)c2cc(S(=O)(=O)CCC(=O)Nc3cccc(C(F)(F)F)c3)ccc21` showed an inhibition of 7.73%.
With `CCOC(=O)c1ccc(NS(=O)(=O)c2c(C)[nH]c(C)c2C(=O)N2CCCCC2)cc1` the inhibition was active: 69.3%.
Work on `CN(C)S(=O)(=O)c1ccc2c(c1)N(CC(=O)N1CCN(c3cccc(Cl)c3)CC1)CCS2` yielded an inhibition of -20.8%.
`Cc1ccc(-c2nc3c(cnn3-c3ccccc3)c(=O)n2-c2cccc(Cl)c2)cc1` gave an inhibition of -3.16%.
`COc1cc(OC)c(N(C)C(=O)C2CCCN(c3ncnc4c3nc3n4CCCCC3)C2)cc1Cl` (stereo not drawn) gave an inhibition of 1.27%.
In the case of `COc1cc(NC(=O)Nc2nnc(N3CCCCCC3)s2)cc(OC)c1`, the inhibition is reported as -2.76%.
In the case of `CC1CCCN(Cc2c(O)ccc3c(=O)c(Oc4ccc(C(C)(C)C)cc4)c(C(F)(F)F)oc23)C1` (stereo not drawn), the inhibition is reported as 0.999%.
`CNc1ccc2c3c(cccc13)C(=O)N(C)C2=O` was tested, and the inhibition was active: 71.9%.
In the case of `COc1cc(/C=C/c2nc3cc(Cl)ccc3c(=O)n2-c2cccc(C(F)(F)F)c2)cc(OC)c1OC`, the inhibition is reported as -0.758%.
`COc1ccc(Cn2c(SCC(=O)Nc3ccc(OC)cc3)nc3ccccc32)cc1` showed an inhibition of 12.9%.
With `O=C(COCc1cc(-c2ccco2)on1)Nc1cccc(O)c1` the inhibition was 15.5%.
Work on `Cc1ccc(-c2nc(SCC(=O)N3CCc4ccccc43)c3c(=O)n(C)c(=O)n(C)c3n2)cc1` yielded an inhibition of -27.9%.
With `Cc1ccc(N2CCN(c3c(CN4CCCC4)c(=O)oc4ccccc34)CC2)c(C)c1` the inhibition was 23%.
`COCCCNC(=O)c1c(NC(=O)c2cc(=O)c3ccccc3o2)sc2c1CCCC2` showed an inhibition of 0.735%.
For `O=C(NCc1ccccc1)c1ccc2c(c1)N(Cc1cccc(Cl)c1)C(=O)c1ccccc1S2(=O)=O`, the inhibition was -10.5%.
Work on `Cc1ccc(S(=O)(=O)n2nc(C)c(S(=O)(=O)N3CCC(C)CC3)c2C)cc1` yielded an inhibition of 6.23%.
Compound `Cc1ccccc1CN1C(=O)c2ccccc2Sc2ccc(C(=O)OCc3ccco3)cc21` has an inhibition of -6.77%.
Compound `Cc1ccc2nc(-c3ccc(Cl)c(NC(=O)c4cccc([N+](=O)[O-])c4C)c3)oc2c1` has an inhibition of -0.042%.
For `CCn1ccc2cc(S(=O)(=O)N3CCC(C(=O)NCc4ccc(OC)cc4)CC3)ccc21`, the inhibition was -8.21%.
`CCOC(=O)C1CCC(CN(Cc2c(Cl)cccc2Cl)S(=O)(=O)c2ccc(Cl)cc2)CC1` (stereo not drawn) showed an inhibition of 17.2%.
`COc1ccc(NC(=O)C2CCN(c3nc4ccccc4nc3C(F)(F)F)CC2)cc1` gave an inhibition of -8.62%.
In the case of `COc1ccc(-n2nc(C(=O)NCCc3ccc(OC)c(OC)c3)c3c4ccccc4n(C)c3c2=O)cc1Cl`, the inhibition is reported as 4.25%.
With `Cc1oc(-c2ccc(C(=O)NCCc3ccc(Cl)cc3)cc2)nc1CSc1ccccc1` the inhibition was -6.4%.
`COc1ccc(-c2cn3nc(N4CCC(C(=O)Nc5ccc(Cl)cc5C)CC4)sc3n2)cc1` was tested, and the inhibition was 5.08%.
In the case of `O=C(Cn1cc(SCc2ccccc2)c2ccccc21)N1CCCCCC1`, the inhibition is reported as 3.79%.
`Cc1nnc(NC(=O)CSc2nnc3c(n2)[nH]c2ccccc23)s1` gave an inhibition of 9.91%.
`Cc1nn(CCCC(=O)NCc2cccc(Cl)c2)c(=O)c2c1sc1ccccc12` gave an inhibition of 9.43%.
Work on `Cc1cccc(N2CCN(CCCNC(=O)c3sc4ncccc4c3-n3cccc3)CC2C)c1` (stereo not drawn) yielded an inhibition of 14.3%.
With `CC(=O)c1ccc(S(=O)(=O)N2CCN(C(=O)c3ccc(-n4nc(C)c(Cl)c4C)cc3)CC2)cc1` the inhibition was active: 30.6%.
In the case of `Cc1ccc(F)cc1NC(=O)c1ccc(Cn2nc(N3CCN(c4ccccc4)CC3)ccc2=O)o1`, the inhibition is reported as 2.43%.
In the case of `O=c1n(Cc2ccc(F)cc2)nc2n1-c1cc(Cl)ccc1OC2`, the inhibition is reported as -11.9%.
For `CCOC(=O)C1CCN(C(=O)Cn2ncc3c4ccccc4n(Cc4ccccc4F)c3c2=O)CC1`, the inhibition was -0.0786%.
`CCN(C(=O)c1cccn(Cc2ccccc2C)c1=O)c1ccccc1` gave an inhibition of -3.12%.
`Cc1ccc(NC(=O)CN2C(=O)CCn3nc(-c4cccn4C)cc32)c(Cl)c1` showed an inhibition of -5.91%.
With `Brc1ccc(CN2CCN(c3ccccn3)CC2)s1` the inhibition was active: 68.8%.
Compound `CCOc1ccc(S(=O)(=O)c2cn(C)c3ccccc3c2=O)cc1` has an inhibition of -10.3%.
In the case of `Cc1ccc(CNC(=O)Cn2c(=O)ccc3cc(S(=O)(=O)N4CCCC4)ccc32)cc1`, the inhibition is reported as -4.18%.
`CC(NC(=O)c1c2c(nc3ccccc13)C(=O)N(C1CCCCC1)C2)c1ccccc1` (stereo not drawn) was tested, and the inhibition was -0.764%.
Compound `Cc1ccc(Cc2cnc(NC(=O)C3Cc4ccc(C)cc4C(=O)O3)s2)cc1` (stereo not drawn) has an inhibition of 3.24%.
In the case of `CCc1ccc(NC(=O)CN2CCSc3ccc(S(=O)(=O)N4CCCC4)cc32)cc1`, the inhibition is reported as -16.5%.
`COc1ccc(CCNc2nc(-c3ccc(F)cc3)cc(C(F)(F)F)n2)cc1OC` gave an inhibition of -8.2%.
With `COc1ccc(C(CNC(=O)c2cccc([N+](=O)[O-])c2)N2CCOCC2)cc1` (stereo not drawn) the inhibition was -1.63%.
In the case of `C/C(=N/NC(=O)CN(c1ccccc1)S(=O)(=O)c1ccccc1)c1ccccc1O`, the inhibition is reported as active: 52.1%.
`CCC(=O)Nc1ccccc1-c1nc2ccccc2n(C(C)C(=O)Nc2cccc(Cl)c2C)c1=O` (stereo not drawn) showed an inhibition of 13.6%.
`COc1cc(NC(=O)CNC(=O)Cn2ccc3ccccc3c2=O)cc(OC)c1OC` gave an inhibition of 11.1%.
`CC(C)c1ccc(Nc2ncnc3c2nc2n3CCCC2)cc1` gave an inhibition of -1.57%.
With `COc1ccc(-c2cc(C(=O)NCc3ccc(F)cc3)no2)cc1` the inhibition was -8.62%.
Compound `CC(=O)c1ccc(N2CCN(c3nc4c(S(=O)(=O)c5ccc(C)c(C)c5)nnn4c4ccc(Cl)cc34)CC2)cc1` has an inhibition of 5.79%.
`Cc1cc(C)cc(-n2ccnc2SCC(=O)Nc2ccc(C)cc2C)c1` gave an inhibition of -7.12%.
`CCC(=O)N1CCc2cc(Br)cc(S(=O)(=O)CCC(=O)N3CCN(c4ccc(OC)cc4)CC3)c21` gave an inhibition of 15.9%.
Work on `CCC(C(=O)Nc1cc(OC)ccc1OC)n1c(=O)c(C(F)(F)F)nc2ccccc21` (stereo not drawn) yielded an inhibition of 1.72%.
With `O=c1n(Cc2ccc(Cl)cc2)c2ccccc2c2nc(-c3ccccc3)nn12` the inhibition was -14.9%.
`CCc1ccc(NC(=O)Cc2csc(COc3cccc(C)c3)n2)cc1` gave an inhibition of 0.819%.
`Cc1nc2ccc(S(=O)(=O)NC(C(=O)N3CCN(c4ccc(Cl)cc4)CC3)C(C)C)cc2s1` (stereo not drawn) gave an inhibition of 8.88%.
With `Cc1cc(-c2ccc(C)c(S(=O)(=O)NCCCN3CCCCCC3)c2)on1` the inhibition was active: 33.7%.
`COC(=O)c1ccccc1NC(=O)NCc1ccc2c(c1)OCO2` was tested, and the inhibition was active: 34.4%.
`CCn1c(=O)cc(SCC(=O)NCCc2cccc(C)c2)c2ccccc21` was tested, and the inhibition was -2.74%.
In the case of `COc1ccc(-c2cc(C(C)=O)c(C)n2CCC(=O)Nc2ccc(C)cc2Cl)cc1`, the inhibition is reported as 18%.
Compound `COc1cc(C2N=C(N)Nc3nc4ccccc4n32)ccc1OCC(=O)O` (stereo not drawn) has an inhibition of -3.58%.
`Cc1cc(C)cc(Nc2nc3ccccc3n3cnnc23)c1` showed an inhibition of -12.9%.
Work on `COCCn1c(C)cc(O)c(C(c2ccc(Cl)cc2)N2CCN(c3ccccc3)CC2)c1=O` (stereo not drawn) yielded an inhibition of -16.5%.
With `COc1ccc(NC(=O)Nc2cccc(OCc3cc(=O)n4cccc(C)c4n3)c2)c(OC)c1` the inhibition was 10.2%.
`CN1C(C(=O)c2ccccc2)=C(NC(=O)c2ccccc2Br)c2ccccc2S1(=O)=O` was tested, and the inhibition was -11.6%.
With `CC(C)c1cc(C(=O)NC(C)c2ccccc2)no1` (stereo not drawn) the inhibition was 2.14%.
`CCN(CC)CCNC(=O)c1ccc(Sc2ccc(Cl)cc2)c(NC(C)=O)c1` was tested, and the inhibition was active: 36%.
Work on `CCOc1ccc(C(=O)Nc2ccccc2C(=O)OCc2cc(=O)n3nc(C4CC4)sc3n2)cc1` yielded an inhibition of 12.6%.
Compound `COc1ccc(CCNC(=O)c2cc3c(s2)-c2c(C)cccc2OC3)c(OC)c1` has an inhibition of 3.29%.
In the case of `Cc1cc(C)cc(NC(=O)Cn2nnc(C(=O)NCc3ccccc3Cl)c2N)c1`, the inhibition is reported as -13%.
`CCN(Cc1ccccc1)C(=O)c1cc2c(=O)oc3ccc(C)cc3c2s1` gave an inhibition of -1.09%.
With `Cc1ccc(-c2nc(S(=O)(=O)c3ccc(C)cc3)c(SCC(=O)Nc3ccc(F)cc3)o2)cc1` the inhibition was -5.64%.
For `CCc1ccc(S(=O)(=O)c2nnn3c2nc(Nc2cc(OC)cc(OC)c2)c2cc(Cl)ccc23)cc1`, the inhibition was 1.09%.
`CN(C)CC(C)(C)CNC(=O)C1CCN(CCCc2ccccc2)CC1` was tested, and the inhibition was active: 31.3%.
In the case of `COc1ccc(-c2nc3nc(C)cc(N4CCN(c5cccc(C(F)(F)F)c5)CC4)n3n2)cc1`, the inhibition is reported as -6.57%.
In the case of `COCCCNC(=O)c1ccc(Cn2c(=O)c3ccccc3n(CC(=O)Nc3ccc(C)cc3C)c2=O)cc1`, the inhibition is reported as 4.65%.
`Cc1ccc2cc3cc(C(=O)N4CCN(c5ccccc5)CC4)oc3nc2c1` was tested, and the inhibition was -20.6%.
For `Cc1cc(C)cc(NC(=O)C(=O)NCCCN2CCOCC2)c1`, the inhibition was -18%.
For `CCc1nn(CC(=O)NCc2ccccc2Cl)c(=O)c2cc3ccccc3n12`, the inhibition was 5.3%.
Compound `CCOc1ccc(CN(C(=O)c2nc(SC)ncc2Cl)C2CCS(=O)(=O)C2)cc1` (stereo not drawn) has an inhibition of -3.61%.
`CC1CCCCN1CCCNC(=O)c1ccc2c(c1)sc1nc(-c3ccc(F)cc3)cn12` (stereo not drawn) was tested, and the inhibition was -3.99%.
For `CCc1ccc(Oc2c(C(F)(F)F)oc3c(CN4CCN(CC)CC4)c(O)ccc3c2=O)cc1`, the inhibition was 12.4%.
Work on `O=C(Nc1nc2ccc(S(=O)(=O)N3CCCC3)cc2s1)c1ccc(F)cc1` yielded an inhibition of -19.3%.
`Cc1ccc(OCc2ccoc2C(=O)O)cc1C` was tested, and the inhibition was active: 30.2%.
Compound `CCOc1ccccc1CNC(=O)c1cn(-c2ccc(OC)cc2)c(=O)c2ccccc12` has an inhibition of 4.86%.
For `COc1cccc(C2=C(C(C)=O)Sc3nnc(C4CCCCC4)n3N2C(C)=O)c1`, the inhibition was -16.6%.
In the case of `COc1cccc(CNC(=O)CSc2n[nH]c(-c3ccccc3Cl)n2)c1OC`, the inhibition is reported as 12.9%.
With `Cc1cccc(NC(=O)CSc2nc(=O)n(Cc3ccco3)c3c2CCC3)c1C` the inhibition was 17.1%.
In the case of `CCOc1ccc(NC(=O)[C@H]2O[C@@H]3OC(C)(C)O[C@@H]3[C@H]3OC(C)(C)O[C@H]32)cc1`, the inhibition is reported as 5.83%.
`CCC(CC)C(=O)Nc1ccc2nc(SCC(=O)N3CCOCC3)sc2c1` gave an inhibition of 5.44%.
In the case of `CSc1ccc(CCNC(=O)c2c(C)nn(-c3ccc(F)cc3)c2-n2cccc2)cc1`, the inhibition is reported as -6.13%.
Compound `O=C(NCc1ccc(Cl)cc1)C1CCN(S(=O)(=O)c2ccc(F)cc2)CC1` has an inhibition of -15.4%.
